According to the supplement of paper PMC7125110:
± gives the standard error. Variants at the background level are over-represented here.

B1: glmS ribozyme (parent)
chain: AUAAAAGCGCCAGAACUACAGAAAUGUAGUUGACGAGGAGGAGGUUUAUCGAAUUUUCGGCGGAUGCCUCCAAA

Columns and labels:
Conditions in all cases: with glucosamine-6-phosphate
glucosamine-6-phosphate [1] = variants of: B1; experiment: self-cleavage kobs at 640 uM GlcN6P; higher = faster cleavage; RNA array
Summary of the method: (§1)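 kcat and KM were obtained from weighted Michaelis–Menten fits across concentrations of kobs values. Those came from one- or two-exponential decay fits to per-tile medians normalised to baseline and to non-cleaving reference variants. The variants were barcoded ribozymes transcribed in situ by E. coli RNA polymerase on sequenced MiSeq chips and tracked through a hybridised Cy3 probe at 37 °C, with 40 μM to 10 mM glucosamine-6-phosphate in HEPES/KCl/Mg(OAc)2 buffer flowed in.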

glucosamine-6-phosphate [2] = variants of: B1; experiment: self-cleavage kobs at 10000 uM GlcN6P; higher = faster cleavage; RNA array
Summary of the method: as §1

glucosamine-6-phosphate [3] = variants of: B1; experiment: self-cleavage kobs at 2500 uM GlcN6P; higher = faster cleavage; RNA array
Summary of the method: as §1

glucosamine-6-phosphate [4] = variants of: B1; experiment: self-cleavage kobs at 160 uM GlcN6P; higher = faster cleavage; RNA array
Summary of the method: as §1

Variant	self-cleavage kobs at 640 uM GlcN6P (glucosamine-6-phosphate [1]) [s⁻¹]	self-cleavage kobs at 10000 uM GlcN6P (glucosamine-6-phosphate [2]) [s⁻¹]	self-cleavage kobs at 2500 uM GlcN6P (glucosamine-6-phosphate [3]) [s⁻¹]	self-cleavage kobs at 160 uM GlcN6P (glucosamine-6-phosphate [4]) [s⁻¹]
U31A A42U U57A A64G C71A	< 1e-05	–	–	–
U31A C34A	< 1e-05	< 1e-05	–	–
U31A C58U A64C	< 1e-05	–	–	–
U31A G35C G37A G62A	< 1e-05	–	–	–
U31A G40U C67G	< 1e-05	–	–	–
U31A G41U C61U U69G	< 1e-05	–	< 1e-05	–
U31A G51A	< 1e-05	< 1e-05	< 1e-05	< 1e-05
U31A G60C G62C	< 1e-05	–	< 1e-05	< 1e-05
U31A G60U C71A	< 1e-05	–	< 1e-05	–
U31A U49G C50A U55G U56A	< 1e-05	< 1e-05	< 1e-05	< 1e-05
U31A U55G C67U	0.000859 ± 0.00023	–	–	–
U31A U57A	4.97e-05 ± 2.1e-05	0.000194 ± 2.7e-05	0.000125 ± 2.8e-05	< 1e-05
U31A U69G	6.47e-05 ± 1.5e-05	4.26e-05 ± 9.9e-06	5.62e-05 ± 1.2e-05	4.7e-05 ± 1.3e-05
U31C A39G A42C	< 1e-05	–	< 1e-05	–
U31C A42U A53C C61U C68A	< 1e-05	–	–	–
U31C A42U G44A	< 1e-05	–	< 1e-05	–
U31C C50G G59A C71G	7.63e-05 ± 1.9e-05	–	–	–
U31C G37U A48G C61A	< 1e-05	–	–	–
U31C G40U C67U	< 1e-05	–	–	–
U31C G41A G59U	< 1e-05	–	< 1e-05	< 1e-05

Variant	self-cleavage kobs at 640 uM GlcN6P (glucosamine-6-phosphate [1]) [s⁻¹]	self-cleavage kobs at 10000 uM GlcN6P (glucosamine-6-phosphate [2]) [s⁻¹]	self-cleavage kobs at 2500 uM GlcN6P (glucosamine-6-phosphate [3]) [s⁻¹]	self-cleavage kobs at 160 uM GlcN6P (glucosamine-6-phosphate [4]) [s⁻¹]
U31C G41U	5.36e-05 ± 1e-05	–	0.000117 ± 1.7e-05	–
U31C G43A C70U	< 1e-05	–	–	–
U31C G43C C61U	< 1e-05	–	< 1e-05	–
U31C G44A U46G G59A C70U	< 1e-05	–	< 1e-05	–
U31C G59C G66U	< 1e-05	< 1e-05	–	–
U31C U49G	2.25e-05 ± 9.3e-06	6.33e-05 ± 9.1e-06	4.27e-05 ± 7.7e-06	–
U31C U56G C58A G62A	< 1e-05	–	–	–
U31C U56G G60C	< 1e-05	< 1e-05	–	< 1e-05
U31C U65C	3.88e-05 ± 1.4e-05	4.78e-05 ± 6.9e-06	4.75e-05 ± 9.5e-06	–
U31G G35C G51U	< 1e-05	–	–	–
U31G G37C G38C	< 1e-05	–	< 1e-05	–
U31G G38A A48C	< 1e-05	–	< 1e-05	–
U31G G38C G44A U46C	< 1e-05	–	–	–
U31G G38U A53G C68A C71A	0.000204 ± 7.6e-05	–	–	–
U31G G41A A42C U55G	< 1e-05	–	< 1e-05	< 1e-05
U31G G51C U65G	< 1e-05	–	< 1e-05	–
U31G G60U U65A	< 1e-05	–	–	–
U31G U45C A53G	0.000175 ± 3.2e-05	–	–	–
U31G U45G U55G G60C	< 1e-05	–	–	–
U31G U56G C61A	< 1e-05	–	–	–

Variant	self-cleavage kobs at 640 uM GlcN6P (glucosamine-6-phosphate [1]) [s⁻¹]	self-cleavage kobs at 10000 uM GlcN6P (glucosamine-6-phosphate [2]) [s⁻¹]	self-cleavage kobs at 2500 uM GlcN6P (glucosamine-6-phosphate [3]) [s⁻¹]	self-cleavage kobs at 160 uM GlcN6P (glucosamine-6-phosphate [4]) [s⁻¹]
U31G U65G	0.000375 ± 5.5e-05	0.00184 ± 0.00019	0.000924 ± 0.00017	9.35e-05 ± 1.7e-05
G32A A36U	< 1e-05	–	–	< 1e-05
G32A A53U G60A	< 1e-05	–	< 1e-05	–
G32A G35U A53U	< 1e-05	–	–	–
G32A G37C A64C	< 1e-05	< 1e-05	–	–
G32A G38C A52U U56A C70G	< 1e-05	–	–	–
G32A G41U G51U A53U	< 1e-05	–	–	–
G32A G44A A64C	< 1e-05	–	–	–
G32A G51U A52U G60C G62C	< 1e-05	–	–	–
G32A G62U	< 1e-05	< 1e-05	–	< 1e-05
G32A U45G	0.000212 ± 4.3e-05	–	0.000204 ± 5.3e-05	–
G32A U46G C61G	< 1e-05	–	< 1e-05	–
G32A U65A C71U	5.38e-05 ± 1.4e-05	–	9.54e-05 ± 2.4e-05	–
G32C A33G U47A U54C A64C C71U	< 1e-05	–	< 1e-05	–
G32C A39G G44C U49A	< 1e-05	–	–	–
G32C A39U U55C U65A	< 1e-05	–	< 1e-05	< 1e-05
G32C A48C G62U	< 1e-05	–	< 1e-05	–
G32C A48G C70G	< 1e-05	< 1e-05	–	–
G32C C34A G37U U55C	< 1e-05	–	< 1e-05	–
